According to patent publication US9879043B1, “Synthesis of non-natural cofactor analogs of S-adenosyl-L-methionine using methionine adenosyltransferase” (University of Kentucky Research Foundation, priority 2013, dated 2018):
For at least one compound, name, drawing or mass did not settle the structure.

Legend:
Format in all cases: biochemical
[1] = biological target: Escherichia coli MAT (eMAT) (Escherichia coli, UniProt P0A817); test: MAT assay, turnover of S/Se-Met analogs to S(Se)AM analogs (RP-HPLC end point); details: 2 mM Met analog, 1 mM ATP, 5 μM MAT, pH 8, 4 h, 37° C.; average of two assays
Protocol: (§1) Standard uniform assay conditions (2 mM Met analog, 1 mM ATP, 5 μM MAT, 25 mM Tris, 5 mM MgCl2, 50 mM KCl, pH 8, 4 h) were adopted to facilitate this broad assessment. For the thermophilic counterpart (mMAT), reactions were conducted at 65° C., while all other reactions were incubated at 37° C. Production of SAM analogs was determined by an RP-HPLC end point assay to afford complete analysis of the desired SAM analog and/or any corresponding degradation products known to directly derive from the desired SAM analog intermediate. Putative SAM analog and SAM-derived degradative product formation was subsequently confirmed via high-resolution mass spectrometry (HRMS) analysis for all positive reactions (see Table 2).
(§2) To monitor MAT reactions, analytical RP HPLC employed a Luna C18 column (5 μm, 4.6 mm×250 mm; Phenomenex, Torrance, Calif., USA) [gradient of 10% B to 40% B over 15 min, 40% B to 75% B over 5 min (A=10 mM NaH2PO4, 5 mM octane sulfonic acid, pH was adjusted to 3.5 using phosphoric acid; B=acetonitrile) flow rate=1 mL min^−1; A254].
(§3) In vitro MAT reactions were conducted in a volume of 50 μl with 2 mM S/Se-alkylated analog (compounds 2-30), 1 mM ATP and 5 μM purified MAT in 25 mM Tris buffer pH 8.0, 5 mM MgCl2, 50 mM KCl for 4 h. The sMAT and mMAT reactions were conducted at 65° C. while hMATs and eMAT were incubated at 37° C. Reactions were quenched by adding an equal volume of methanol followed by centrifugation (10,000×g for 15 min) to remove the precipitated protein and product formation for each reaction was subsequently analyzed by RP-HPLC using Method D (FIG. 15, first column). For each reaction, percent yield was based upon the integration of species at 254 nm and calculated by dividing the integrated area of product and/or decomposed product by the sum of integrated area of product and/or decomposed product and the remaining substrate. The assays were repeated twice under identical conditions, and Table 2 (and FIG. 5) represents an average value of two assays. The inclusion of adenine and 5′-R-thio-5′-adenosine in these calculations is based upon the established SAM and ATP chemical decomposition pathways which indicate adenine and 5′-R-thio-5′-adenosine to only derive from SAM (not ATP). All putative products were subsequently confirmed by high resolution electrospray ionization (ESI) mass spectra with positive (+) and/or negative (−) mode.

[2] = biological target: T1, Methanocaldococcus jannaschii MAT (mMAT) (Methanocaldococcus jannaschii, UniProt Q58605); details: 2 mM Met analog, 1 mM ATP, 5 μM MAT, pH 8, 4 h, 65° C.; average of two assays
T1 sequence (Q58605 1-406): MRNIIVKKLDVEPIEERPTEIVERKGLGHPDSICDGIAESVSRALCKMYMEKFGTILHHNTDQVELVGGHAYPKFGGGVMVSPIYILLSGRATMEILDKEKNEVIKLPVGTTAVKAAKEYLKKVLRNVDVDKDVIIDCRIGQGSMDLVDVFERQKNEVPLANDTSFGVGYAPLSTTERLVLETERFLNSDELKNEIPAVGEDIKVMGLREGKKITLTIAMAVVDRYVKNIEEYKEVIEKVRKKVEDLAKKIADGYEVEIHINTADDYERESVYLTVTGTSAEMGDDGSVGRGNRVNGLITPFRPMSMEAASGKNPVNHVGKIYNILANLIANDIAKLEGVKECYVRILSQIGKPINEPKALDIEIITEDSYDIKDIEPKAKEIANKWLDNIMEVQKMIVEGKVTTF
Protocol: as §1, with “intermediate.” for “intermediate. Putative SAM analog and SAM-derived degradative product formation was subsequently confirmed via high-resolution mass spectrometry (HRMS) analysis for all positive reactions (see Table 2).”
as §2
as §3, with “The” for “In vitro MAT reactions were conducted in a volume of 50 μl with 2 mM S/Se-alkylated analog (compounds 2-30), 1 mM ATP and 5 μM purified MAT in 25 mM Tris buffer pH 8.0, 5 mM MgCl2, 50 mM KCl for 4 h. The”

[3] = biological target: T2, Sulfolobus solfataricus MAT (sMAT) (Saccharolobus solfataricus, UniProt Q980S9); details: 2 mM analog, 1 mM ATP, 5 μM sMAT, pH 8.0, 4 h at 65° C.; average of two assays
T2 sequence (Q980S9 1-404): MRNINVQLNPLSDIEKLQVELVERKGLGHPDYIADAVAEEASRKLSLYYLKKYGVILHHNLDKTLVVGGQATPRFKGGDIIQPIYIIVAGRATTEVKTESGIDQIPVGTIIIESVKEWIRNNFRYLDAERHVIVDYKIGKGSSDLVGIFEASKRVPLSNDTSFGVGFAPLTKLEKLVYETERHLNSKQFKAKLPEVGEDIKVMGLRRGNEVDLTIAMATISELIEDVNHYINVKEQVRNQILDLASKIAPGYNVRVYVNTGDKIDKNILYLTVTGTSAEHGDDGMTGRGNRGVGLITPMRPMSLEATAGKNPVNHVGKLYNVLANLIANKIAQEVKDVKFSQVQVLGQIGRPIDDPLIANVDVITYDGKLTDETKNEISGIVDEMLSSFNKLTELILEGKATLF
Protocol: In-vitro sMAT assay: In vitro sMAT reactions were conducted in a volume of 50 μl with 2 mM S/Se-alkylated analog, 1 mM ATP and 5 μM purified sMAT in 25 mM Tris buffer pH 8.0, 5 mM MgCl2, 50 mM KCl for 4 h at 65° C. Reactions were quenched by adding an equal volume of methanol followed by centrifugation (10,000×g for 15 min) to remove the precipitated protein and product formation for each reaction was subsequently analyzed by reverse phase HPLC (RP-HPLC) using method described below. For each reaction, percent yield was based upon the integration of species at 254 nm and calculated by dividing the integrated area of product and/or decomposed product by the sum of integrated area of product and/or decomposed product and the remaining substrate. The assays were repeated twice under identical conditions, and Table 4 (and FIG. 17) represents an average value of two assays. The inclusion of adenine and 5′-R-thio-5′-adenosine in these calculations is based upon the established SAM and ATP chemical decomposition pathways which indicate adenine and 5′-R-thio-5′-adenosine to only derive from SAM (not ATP). All putative products were subsequently confirmed by high resolution electrospray ionization (ESI) mass spectra with positive (+) and/or negative (−) mode.
RP-HPLC method: Reactions were quenched by the addition of equal volume of methanol followed by centrifugation at 10,000 g for 15 min to remove precipitated protein before applying on an analytical Varian ProStar HPLC [Luna C18 column, 5 μm, 4.6 mm×250 mm; Phenomenex, Torrance, Calif., USA; gradient of 10% B to 40% B over 15 min, 40% B to 75% B over 5 min (A=10 mM NaH2PO4, 5 mM octane sulfonic acid, pH was adjusted to 3.5 using phosphoric acid; B=acetonitrile) flow rate=1 mL min^−1; A254].

[4] = biological target: human MAT I catalytic subunit alpha (hMAT1A) (Homo sapiens, UniProt Q00266); test: MAT assay, turnover of S/Se-Met analogs to S(Se)AM analogs (RP-HPLC end point); details: 2 mM Met analog, 1 mM ATP, 5 μM MAT, pH 8, 4 h, 37° C.; average of two assays
Protocol: as §1, with “intermediate.” for “intermediate. Putative SAM analog and SAM-derived degradative product formation was subsequently confirmed via high-resolution mass spectrometry (HRMS) analysis for all positive reactions (see Table 2).”
as §2
as §3, with “The” for “In vitro MAT reactions were conducted in a volume of 50 μl with 2 mM S/Se-alkylated analog (compounds 2-30), 1 mM ATP and 5 μM purified MAT in 25 mM Tris buffer pH 8.0, 5 mM MgCl2, 50 mM KCl for 4 h. The”

Chain of human MAT I catalytic subunit alpha (hMAT1A) (Q00266 whole entry): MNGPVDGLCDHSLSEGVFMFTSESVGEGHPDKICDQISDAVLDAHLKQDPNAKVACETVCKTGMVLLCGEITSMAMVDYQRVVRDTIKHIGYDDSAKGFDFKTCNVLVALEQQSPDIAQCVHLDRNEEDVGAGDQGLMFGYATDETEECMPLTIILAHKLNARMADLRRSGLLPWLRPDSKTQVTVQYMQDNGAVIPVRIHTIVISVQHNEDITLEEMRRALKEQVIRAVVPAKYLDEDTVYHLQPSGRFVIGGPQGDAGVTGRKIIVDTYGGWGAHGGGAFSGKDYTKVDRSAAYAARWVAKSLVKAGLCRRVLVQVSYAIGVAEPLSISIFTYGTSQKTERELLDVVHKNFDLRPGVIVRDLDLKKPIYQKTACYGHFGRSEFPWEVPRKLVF
Chain of Escherichia coli MAT (eMAT) (P0A817 whole entry): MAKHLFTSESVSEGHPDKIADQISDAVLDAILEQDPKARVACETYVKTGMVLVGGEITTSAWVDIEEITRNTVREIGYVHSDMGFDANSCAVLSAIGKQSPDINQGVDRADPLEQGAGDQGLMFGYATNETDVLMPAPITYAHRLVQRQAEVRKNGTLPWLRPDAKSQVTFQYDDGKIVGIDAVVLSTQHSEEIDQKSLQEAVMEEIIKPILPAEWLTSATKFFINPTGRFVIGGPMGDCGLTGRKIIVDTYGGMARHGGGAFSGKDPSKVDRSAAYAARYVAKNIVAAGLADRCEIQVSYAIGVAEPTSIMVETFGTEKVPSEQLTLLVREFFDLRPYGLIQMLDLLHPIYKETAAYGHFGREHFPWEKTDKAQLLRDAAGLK

For `C[Se]CC[C@H](N)C(=O)O` [2-Se, L-selenomethionine, reference compound], the “Percentage Turn-over eMAT” value [1] was 100%, the “Percentage Turn-over mMAT” value [2] was 100% and the “Percentage Turn-Over (sMAT)” value [3] was 100%.

`C=CC[Se]CC[C@H](N)C(=O)O` [compound 7-Se, (2S)-2-amino-4-(prop-2-en-1-ylselanyl)butanoic acid] was tested, and the “Percentage Turn-over eMAT” value [1] was 2%, the “Percentage Turn-over mMAT” value [2] was 15% and the “Percentage Turn-over hMAT1A” value [4] was 10%. For the same compound, the “Percentage Turn-Over (sMAT)” value [3] was 30%.

In the case of `CC(C)=CC[Se]CC[C@H](N)C(=O)O` [compound 19-Se, (2S)-2-amino-4-[(3-methylbut-2-en-1-yl)selanyl]butanoic acid], the “Percentage Turn-over eMAT” value [1] is reported as 5%, the “Percentage Turn-over mMAT” value [2] is reported as 16% and the “Percentage Turn-over hMAT1A” value [4] is reported as 3%. The “Percentage Turn-Over (sMAT)” value [3] was 44%.

In the case of `[N-]=[N+]=NC/C=C/C[Se]CC[C@H](N)C(=O)O` [compound 23-Se, (2S)-2-amino-4-{[(2E)-4-azidobut-2-en-1-yl]selanyl}butanoic acid], the “Percentage Turn-over eMAT” value [1] is reported as 5%, the “Percentage Turn-over mMAT” value [2] is reported as 18% and the “Percentage Turn-Over (sMAT)” value [3] is reported as 24%.

`C=C(C)C[Se]CC[C@H](N)C(=O)O` [compound 12-Se, (2S)-2-amino-4-[(2-methylprop-2-en-1-yl)selanyl]butanoic acid] was tested, and the “Percentage Turn-over eMAT” value [1] was 3%, the “Percentage Turn-over mMAT” value [2] was 14% and the “Percentage Turn-over hMAT1A” value [4] was 5%. The “Percentage Turn-Over (sMAT)” value [3] was 46%.

In the case of `CCCC[Se]CC[C@H](N)C(=O)O` [compound 13-Se, (2S)-2-amino-4-(butylselanyl)butanoic acid], the “Percentage Turn-over eMAT” value [1] is reported as 0%, the “Percentage Turn-over mMAT” value [2] is reported as 32% and the “Percentage Turn-over hMAT1A” value [4] is reported as 6%. The “Percentage Turn-Over (sMAT)” value [3] was 70%.

In the case of `N#CC[Se]CC[C@H](N)C(=O)O` [compound 6-Se, (2S)-2-amino-4-[(cyanomethyl)selanyl]butanoic acid], the “Percentage Turn-over eMAT” value [1] is reported as 2%, the “Percentage Turn-over mMAT” value [2] is reported as 0% and the “Percentage Turn-over hMAT1A” value [4] is reported as 4%. The “Percentage Turn-Over (sMAT)” value [3] was 12%.

`CC[Se]CC[C@H](N)C(=O)O` [compound 3-Se, (2S)-2-amino-4-(ethylselanyl)butanoic acid] was tested, and the “Percentage Turn-over eMAT” value [1] was 5%, the “Percentage Turn-over mMAT” value [2] was 73% and the “Percentage Turn-over hMAT1A” value [4] was 57%. The “Percentage Turn-Over (sMAT)” value [3] was 76%.

With `CCC[Se]CC[C@H](N)C(=O)O` [compound 8-Se, (2S)-2-amino-4-(propylselanyl)butanoic acid] the “Percentage Turn-over eMAT” value [1] was 0%, the “Percentage Turn-over mMAT” value [2] was 27% and the “Percentage Turn-over hMAT1A” value [4] was 6%. The “Percentage Turn-Over (sMAT)” value [3] was 66%.

`C#CCC[Se]CC[C@H](N)C(=O)O` [compound 10-Se, (2S)-2-amino-4-(but-3-yn-1-ylselanyl)butanoic acid] was tested, and the “Percentage Turn-over eMAT” value [1] was 2%, the “Percentage Turn-over mMAT” value [2] was 17% and the “Percentage Turn-over hMAT1A” value [4] was 6%. For the same compound, the “Percentage Turn-Over (sMAT)” value [3] was 10%.

In the case of `CC(C)[Se]CC[C@H](N)C(=O)O` [compound 9-Se, (2S)-2-amino-4-(propan-2-ylselanyl)butanoic acid], the “Percentage Turn-over eMAT” value [1] is reported as 5%, the “Percentage Turn-over mMAT” value [2] is reported as 10% and the “Percentage Turn-over hMAT1A” value [4] is reported as 5%. For the same compound, the “Percentage Turn-Over (sMAT)” value [3] was 40%.

In the case of `C#CC[Se]CC[C@H](N)C(=O)O` [compound 4-Se, (2S)-2-amino-4-(prop-2-yn-1-ylselanyl)butanoic acid], the “Percentage Turn-over eMAT” value [1] is reported as 0%, the “Percentage Turn-over mMAT” value [2] is reported as 14% and the “Percentage Turn-over hMAT1A” value [4] is reported as 7%. The “Percentage Turn-Over (sMAT)” value [3] was 28%.

With `NC/C=C/C[Se]CC[C@H](N)C(=O)O` [compound 24-Se, (2S)-2-amino-4-{[(2E)-4-aminobut-2-en-1-yl]selanyl}butanoic acid] the “Percentage Turn-over eMAT” value [1] was 8%, the “Percentage Turn-over mMAT” value [2] was 30% and the “Percentage Turn-over hMAT1A” value [4] was 7%. For the same compound, the “Percentage Turn-Over (sMAT)” value [3] was 38%.
